#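 Growth conditions: 96-well plates. Treatment: test compound, 48 hours, 5 concentrations. Analysis: linear interpolation between bracketing concentrations; unreached endpoints set to highest concentration. The concentration for 50% growth inhibition is given as GI50.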 Active and inactive are the calls of the source. No stated cut-off is given here; in the data, active = GI50 up to about 1.1 µM and inactive = higher.
# System: NCI-H322M
# Assay: NCI-60 cell line screen, 48 h
row,SMILES,GI50
1,c1ccc2c(c1)C(=Nc1ccc(N=C3c4ccccc4-c4ccccc43)cc1)c1ccccc1-2,inactive: > 100 µM
2,CC1=C2C(O)C(C(C)C(=O)N(C)C)CCC2(C)C=CC1=O (configuration not stated),inactive: > 100 µM
3,O=C(O)CSC(CC(=O)c1ccc(Cl)cc1)c1ccc(Cl)cc1 (configuration not stated),inactive: 40.5 µM
4,CC1=C(C(=O)Nc2ccc(Cl)c(Cl)c2)C(c2ccco2)C(C(=O)Nc2ccc(Cl)c(Cl)c2)=C(C)N1,inactive: 12.5 µM
5,COCCOCOC(CCCCO)c1cc(C)c(O[Si](C)(C)C(C)(C)C)c(C)c1 (configuration not stated),inactive: 13.8 µM
6,COc1ccc(/C=C2\CCC(CN3CCOCC3)C2=O)cc1 (configuration not stated),inactive: 17.1 µM
7,Cn1c(=O)c(C(=O)Nc2nc(C34CC5CC(CC(C5)C3)C4)cs2)c(O)c2ccccc21,inactive: > 100 µM
8,OCN(CO)c1ccc2c(c1)Cc1cc(F)ccc1-2,inactive: 15.2 µM
9,CC(C)(C)CC(C)(C)c1cc2c(O)c(c1)Cc1cc(C(C)(C)CC(C)(C)C)cc(c1O)Cc1cc(C(C)(C)CC(C)(C)C)cc(c1O)Cc1cc(C(C)(C)CC(C)(C)C)cc(c1O)C2,inactive: > 100 µM
10,CC1=C(C(=O)Nc2ccc(C)cc2)C(c2cccc([N+](=O)[O-])c2)C(C(=O)Nc2ccc(C)cc2)=C(C)N1,inactive: 37.8 µM
11,Cc1cc(NS(=O)(=O)c2ccc(Nc3c4ccccc4nc4c(C(=O)NCCN(C)C)ccc(Cl)c34)cc2)no1,inactive: 4.66 µM
12,CC(ON1[C@](C)(c2ccccc2)CC[C@@]1(C)c1ccccc1)c1ccccc1 (some centres not stated),inactive: 45 µM
13,Nc1nc(SCCc2ccccc2)nc2nc3c(c(-c4ccccc4)c12)CCCC3,inactive: > 100 µM
14,CCN(CC)S(=O)(=O)c1ccc2[nH]c(NC(=O)OC)nc2c1,inactive: > 100 µM
15,CCCCCCCCCCCCCC(=O)OC1C(O)C(CO)OC(OC)C1NC(=O)N(CCCl)N=O (configuration not stated),inactive: > 100 µM
16,COc1cc2c(c(OC)c1OC)CCNC2C1=C(O)COC1=O (configuration not stated),inactive: > 100 µM
17,OCCCCn1cc(Cn2ncc3c(O)ncnc32)nn1,inactive: > 100 µM
18,CCCC1C[C@H]2CCCCN2[C@H]2CCCN12 (some centres not stated),inactive: > 100 µM
19,COc1ccc(CC#N)c(OCc2ccccc2)c1,inactive: 5.35 µM
20,CSC1=Nc2ccccc2N=C(c2ccc(Cl)cc2)C1,inactive: 25.2 µM
21,COC(=O)c1cc2ccc(O)c(O)c2cn1,inactive: > 10 µM
22,COC(=O)c1ccccc1/C=C1\Cc2cc3c(cc2C1=O)CCC3,inactive: > 10 µM
23,COc1ccc2[nH]cc(CCNC(=O)[C@](O)(Cc3cn(C)c4ccccc34)[C@@]3(O)OCC(O)C3O)c2c1 (some centres not stated),inactive: > 100 µM

row,SMILES,GI50
1,Cc1ccc(S(=O)(=O)NNC2Oc3cc4c(cc3C(c3ccccc3O)C2C)OCO4)cc1 (configuration not stated),inactive: 15.7 µM
2,Cc1cc(C)c2c(c1)N[S@@](=O)S2,inactive: 69.7 µM
3,CC(C)N(C(=O)C12C3C4C5(C#N)C3C1(C#N)C5C42I)C(C)C (configuration not stated),inactive: > 100 µM
4,C/C(=N\NC(=S)N1CCC1)c1ccccn1,active: 0.01 µM
5,NC(=O)ON=C1CCN(Cc2ccccc2)CC1,inactive: > 100 µM
6,COC(=O)[C@H](Cc1ccccc1)NC(=O)c1ccc(CNC(=O)/C=C/c2cccc(Oc3ccccc3)c2)cc1,inactive: 33.7 µM
7,COc1cc(Cl)cc(O)c(=O)c1OC,inactive: 45 µM
8,COC(=O)c1ccc2c(c1)sc1nc(-c3ccc(OC)cc3)cn12,inactive: > 100 µM
9,CNC(=O)N1N[C@H](c2ccccc2)[C@@H]1c1ccccc1.OB(O)O,inactive: 30.3 µM
10,Cc1c(C)c(S(=O)(=O)N(CCCCCCN)OCCCN)c(C)c2c1OC(C)(C)CC2,inactive: 6.7 µM
11,N=C(N)NCCCC(Nc1c2ccccc2[n+]([O-])c2ccccc12)C(=O)O (configuration not stated),inactive: > 100 µM
12,C=C1c2nc3ccccc3n2C=C(c2ccc(OC)cc2)N1c1ccc(OCCN2CCCCC2)cc1,inactive: 20.2 µM
13,COC(=O)[C@@H](Cc1ccccc1)N1O[C@]12CCCC[C@@H]2NC(=O)OC(C)(C)C (some centres not stated),inactive: 96.8 µM
14,COc1cccc(NC(=O)C(=O)C(C(=O)c2ccccc2F)C2OC(=O)c3ccccc32)c1 (configuration not stated),inactive: 26.8 µM
15,Cc1cc(S(=O)(=O)n2ccnc2O)c(SCCCN(C)C)cc1Cl,inactive: > 100 µM
16,CS(=O)(=O)OCCN(CCOS(C)(=O)=O)c1ccc(C=O)cc1,inactive: 10.5 µM
17,Cn1c(N)c(/C=N/NC(=O)CC#N)c(=O)n(C)c1=O,inactive: > 100 µM
18,Oc1cccc2cc(Cl)cnc12,inactive: 40.7 µM
19,COC(=O)/C=C1\C(=O)C=C2[C@@H]3C[C@H]4C[C@H](CC[C@@]4(C)N21)C3(C)NC(C)=O (some centres not stated),inactive: 20.3 µM
20,O=C1c2c[nH]nc2C(c2ccccc2)N1c1ccccc1 (configuration not stated),inactive: > 10 µM
21,CC[C@]1(Cc2ccc(OC)c(OC)c2)C2CC(C(=O)OC)ON2O[C@H](OCc2ccccc2)[C@@H]1OC(C)=O (some centres not stated),inactive: > 100 µM
22,Cc1cc(C)nc(NS(=O)(=O)c2ccc(Nc3c4ccccc4nc4c(C(=O)Nc5ccc(S(=O)(=O)N=C(N)N)cc5)cccc34)cc2)n1,inactive: 40.7 µM
23,CCOC(=O)Cc1ccc(Nc2nc3cc(C(F)(F)F)ccc3nc2C(=O)OCC)cc1,inactive: > 100 µM

row,SMILES,GI50
1,CCOC(=O)C(=O)Nc1ccccc1C(F)(F)F,inactive: > 100 µM
2,CCOC(=O)c1cnc2cc3cccccc3n2c1=O,inactive: > 100 µM
3,CC(N)(/C=C/c1ccccc1)C(=O)O (configuration not stated),inactive: > 100 µM
4,Cc1ccc(-c2cc(-c3ccc(Cl)cc3)nc(/N=C3\C(=O)N(CN4CCOCC4)c4ccccc43)n2)cc1,inactive: 27.9 µM
5,O=C(O)CC/C(=N\Nc1nsc2ccccc12)c1ccccc1,inactive: 88.3 µM
6,Cc1[nH]c(=O)[nH]c(=O)c1/C=C/C(=O)NC(CO)CC(C)C (configuration not stated),inactive: 125 µM
7,CCOC(=O)c1c(N2CCOCC2)[nH]c(=O)c(C(c2ccco2)c2c(O)c(C(=O)OCC)c(N3CCOCC3)[nH]c2=O)c1O,inactive: > 100 µM
8,CC(=O)O[C@H]1CC[C@@]2(C)C(CC[C@]3(C)C2CC[C@]2(C)Oc4c(C)cc(O)cc4C[C@@H]23)C1(C)C (some centres not stated),inactive: 10.6 µM
9,CCOC(=O)c1[nH]cc(C)c1-c1ccn(-c2ccccc2)c1,inactive: > 100 µM
10,CCOC(=O)CCC(NC(=O)c1ccc(Oc2nc3c(N)cc(C(F)(F)F)cc3nc2-c2ccccc2)cc1)C(=O)OCC (configuration not stated),inactive: 49.1 µM
11,Cn1c2ccccc2c2cc(-c3ccccc3)c3c(c21)C(=O)C=CC3=O,inactive: 19.6 µM
12,CN(C)Nc1cc(=O)[nH]c(=O)[nH]1,inactive: > 100 µM
13,COC(=O)/C=C\C(C#N)(C#N)/N=C/c1ccsc1,inactive: 17.3 µM
14,Clc1ccc(Nc2nnc(CNc3ccc(-c4nnc(Nc5ccc(Cl)cc5)s4)cc3)s2)cc1,inactive: 32.6 µM
15,O=C(/C=C/c1cccs1)c1ccccc1Cl,inactive: 15.1 µM
16,c1c[nH]c(-c2cccc3nsnc23)c1,inactive: 84.5 µM
17,COc1cc(C2c3cc4c(cc3OC(N3CCOCC3)C2C)OCO4)cc(OC)c1O (configuration not stated),inactive: 24 µM
18,CC(C)C12Cc3c(ccc4ccccc34)OC1(C)Oc1ccc3ccccc3c1C2 (configuration not stated),inactive: > 100 µM
19,CC(O)CNC(=O)C(C)Oc1ccc(OCC2CCCCC2)cc1 (configuration not stated),inactive: > 100 µM
20,CC1(O)CCC2(C)C(=O)C1(C)CCC21OCCO1 (configuration not stated),inactive: > 100 µM
21,C1COCCN1.CN(C)c1ccc(-c2c(C#N)c(N)nc(S)c2C#N)cc1,inactive: 66.5 µM
22,COC(=O)c1ccccc1NC(=O)C(=O)Cc1nc2c3c(ccc2nc1O)C(=O)c1ccccc1C3=O,inactive: 11.2 µM
23,CCOC(=O)CCC(NC(=O)c1ccc(NCc2ccc3nc(-c4ccccc4)c(Cl)nc3c2)cc1)C(=O)OCC (configuration not stated),inactive: 53.1 µM

row,SMILES,GI50
1,CCOC(=O)c1c(N2CCCC2)ncn(C)c1=S,inactive: > 100 µM
2,CCCCC1Nc2ccccc2-c2ccnc(Cl)c21 (configuration not stated),inactive: 26.5 µM
3,CC(C)OC(=O)C1Cc2c([nH]c3ccccc23)C(c2ccccc2)N1 (configuration not stated),inactive: > 100 µM
4,COc1cc(-c2c[nH]c3ccccc23)nc(-c2c[nH]c3ccccc23)n1,inactive: 6.92 µM
5,COc1ccc(-c2cc(-c3ccc(Nc4ccnc5cc(Cl)ccc45)cc3)nc(N)c2C#N)c2ccccc12,inactive: > 100 µM
6,CC1(/C=C/CCSc2ccccc2)CC(=O)C2CC1C2(C)C (configuration not stated),inactive: 78.2 µM
7,CC1=NN(c2cccc(Cl)c2)C2(SCC(=O)N2c2nc3ccccc3s2)C1=CC=Cc1ccccc1 (configuration not stated),inactive: 33.7 µM
8,Cc1cc2nn(C3CCCCO3)nc2cc1C (configuration not stated),inactive: > 100 µM
9,COc1ccc2nc3cc(Cl)ccc3c(Sc3ccc([N+](=O)[O-])cc3C)c2c1,inactive: > 100 µM
10,CC(C)c1ccc(C2C3=C(N=C4SCC(=O)N42)C(=O)c2ccccc23)cc1 (configuration not stated),inactive: > 100 µM
11,CC12C(=O)CC(CC1=O)C2(C)C,inactive: > 100 µM
12,Cc1ccc(NC(=O)CCC(=O)C2CC(=O)CC/C2=N\NC(=O)c2cc3ccccc3cc2O)cc1C (configuration not stated),inactive: 31.4 µM
13,Cc1ccc(/N=N\c2c(O)ccc3cc(S(=O)(=O)O)ccc23)cc1,inactive: > 100 µM
14,COc1cccc2c1C(=O)c1c(O)c3c(c(O)c1C2=O)C[C@](O)(C(=O)CO)CC3OC1CC(N)C(OC2CCCCO2)C(C)O1 (some centres not stated),active: 0.664 µM
15,CC1C=CC(C)C2(O)C(=O)NC(O)C12 (configuration not stated),inactive: > 100 µM
16,COc1cc(/C=C/c2ccc(S(N)(=O)=O)cc2)cc(OC)c1,inactive: 26.3 µM
17,Nc1n[n+]([O-])c2ccc(Cl)cc2[n+]1[O-],inactive: 25.5 µM
18,Cc1ccc(Nc2nc(C)c(C(/C=C/c3ccc(/C=C/C(=N/NC(=O)C[n+]4ccccc4)c4sc(Nc5ccc(C)cc5[N+](=O)[O-])nc4C)cc3)=N\NC(=O)C[n+]3ccccc3)s2)c([N+](=O)[O-])c1,inactive: > 100 µM
19,CN1C(=O)C2C(C1=O)C1(O)c3ccccc3C2(N)c2ccccc21 (configuration not stated),inactive: > 100 µM
20,O=P(Oc1ccc2ccccc2c1)(N1CC1)N1CC1,inactive: 72.4 µM
21,CN(C)CCOc1ccc2[nH]c(C(=O)N3CC(CCl)c4ccc(N)cc43)cc2c1 (configuration not stated),active: 0.137 µM
22,O=c1cc(N2CCNCC2)nc2ccccn12,inactive: > 100 µM
23,C[N+](C)(CCCn1ccnc1[N+](=O)[O-])CCCn1ccnc1[N+](=O)[O-],inactive: > 100 µM
